Reference: the supplement of paper PMC6135742
Several values for one entry are separate records, joined by “and”; a condition that tells them apart may be missing. Equal values may be shown once. Where a name gives a salt, the structure may show the parent alone. ± gives the standard deviation of the averaged measurements. The full ranking holds about 2,600 compounds; the median of “total cell number (DAPI+ nuclei) relative to DMSO vehicle control” is about -1.4, and the lowest 2% start at about -23. The list shows a part of the results.

The compounds below were run on jimpy (Plp1 jimpy) mouse iPSC-derived oligodendrocyte progenitor cells (assay: total cell number (DAPI+ nuclei) relative to DMSO vehicle control (SDs above negative control mean); higher = more surviving cells). Conditions: 10 µM; 3 days.

Compound | total cell number
NCCCNCCCCNCCCN [Spermine tetrahydrochloride] | -0.619
CC1=NN(c2ccccc2)C(=O)C1 [Edaravone] | -0.664
Cn1cnc2c1c(=O)[nH]c(=O)n2C [Theobromine] | 0.0968 ± 1.4
Cc1c(-c2ccccc2)oc2c(C(=O)OCCN3CCCCC3)cccc2c1=O [Flavoxate HCl] | 0.0683
CC(C)C[C@@H](C(=O)N[C@H](C(=O)OC1CCCC1)c1ccccc1)[C@H](O)C(=O)NO [Tosedostat (CHR2797)] | -8.26
COc1ccc(O)cc1 [Mequinol] | -2.09
Cc1cc(Nc2ncc3cc(-c4c(Cl)cccc4Cl)c(=O)n(C)c3n2)ccc1F | -10.8
CCCCCCOC(=O)NC(=N)c1ccc(NCc2nc3cc(C(=O)N(CCC(=O)OCC)c4ccccn4)ccc3n2C)cc1 [Dabigatran Etexilate] | -5.12
OC[C@H]1NC[C@H](O)[C@@H](O)[C@@H]1O [1-Deoxynojirimycin hydrochloride] | -0.443
Cc1cc(C)c(CNC(=O)c2cc(-c3ccc(CN4CCOCC4)cc3)cc3c2cnn3C2CCCC2)c(=O)[nH]1 | 7.3
CC1(C)O[C@H]2CC(=O)OC[C@]23[C@H]2CC[C@@]4(C)[C@H](c5ccoc5)OC(=O)[C@H]5O[C@]54[C@]2(C)C(=O)C[C@@H]13 [Limonin] | -2.65
COc1ccc(Cn2ccc3ccc(C(=O)NO)cc32)cc1 | -5.76
C#Cc1cccc(Nc2ncnc3cc(OCCOC)c(OCCOC)cc23)c1 [Erlotinib HCl (OSI-744)] | -16.6
Cc1onc(-c2ccccc2Cl)c1C(=O)N[C@@H]1C(=O)N2[C@@H]1SC(C)(C)[C@@H]2C(=O)O [Cloxacillin Sodium] | -1.25
COC(=O)C1=CO[C@@H](O[C@@H]2O[C@H](CO)[C@@H](O)[C@H](O)[C@H]2O)[C@@H]2C(CO)=CC[C@H]12 [Geniposide] | 0.365
Cn1c(=O)c2[nH]c(-c3ccccc3)nc2n(C)c1=O [1,3-Dimethyl-8-phenylxanthine] | -1.44
CN[C@@H]1[C@H](O)[C@H](NC)[C@H]2O[C@@]3(O)C(=O)C[C@@H](C)O[C@H]3O[C@@H]2[C@H]1O [Spectinomycin HCl] | -0.251
O.O=[Si]=O.O=[Si]=O.O=[Si]=O.O=[Si]=O.[O]=[Mg].[O]=[Mg].[O]=[Mg] | -1.76
NS(=O)(=O)c1cc2c(cc1Cl)NC(C(Cl)Cl)NS2(=O)=O (stereo not given) [Trichlormethiazide] | -2.72
NC(=O)c1cnc(N[C@@H]2CCCC[C@@H]2N)nc1Nc1cccc(-n2nccn2)c1 | -12
CN[C@H](CC(=O)O)C(=O)O [N-Methyl-D-aspartic acid] | -1.02
NC(N)=NC(N)=Nc1cccc(Cl)c1 [1-(m-Chlorophenyl)-biguanide hydrochloride] | -1.53
Cc1c(OCC(F)(F)F)ccnc1C[S@@+]([O-])c1nc2ccccc2[nH]1 [Dexlansoprazole] | 9.33
CC(C(=O)O)c1ccc(-c2ccccc2)c(F)c1 (stereo not given) [Flurbiprofen] | -1.97
NC(=O)c1cn(Cc2c(F)cccc2F)nn1 [Rufinamide] | -3.42 ± 2.6

Compound | total cell number
Cc1cc(O)c2c(c1)C(=O)c1cccc(O)c1C2=O [Chrysophanic Acid] | -0.456
COc1cc2c(N3CCN(C(=O)Nc4ccc(OC(C)C)cc4)CC3)ncnc2cc1OCCCN1CCCCC1 [Tandutinib (MLN518)] | -10.3
CC(=O)O[C@H]1CC[C@@]2(C)C(=CC[C@@H]3[C@@H]2CC[C@]2(C)C(c4cccnc4)=CC[C@@H]32)C1 [Abiraterone Acetate] | -0.749
Cc1ccccc1C(=O)Nc1ccc(C(=O)N2CCCC(O)c3cc(Cl)ccc32)c(C)c1 (stereo not given) [Tolvaptan] | -0.544
CC[N+](CC)(CC)CCOc1ccc(/C=C/c2ccccc2)cc1 | -9.16
CN(C)C(=O)C(CCN1CCC(O)(c2ccc(Cl)cc2)CC1)(c1ccccc1)c1ccccc1 [Loperamide hydrochloride] | -7.72
CN(C)C(=O)C(CCN1CCC(O)(c2ccc(Cl)cc2)CC1)(c1ccccc1)c1ccccc1 [Loperamide HCl] | -10.8
Cc1cccc(C)c1NC(=O)C(C)N (stereo not given) [Tocainide hydrochloride] | -0.826
C=CCc1cccc(/C=N/NC(=O)CN2CCN(Cc3ccccc3)CC2)c1O | -9.01 ± 1.4
CC(C(=O)O)c1ccc2c(c1)[nH]c1ccc(Cl)cc12 (stereo not given) [Carprofen] | -0.446
O=C(Nc1cccc(C(F)(F)F)c1)Nc1cc(S(=O)(=O)NC2CC2)ccc1-c1ccsc1 | 3.6
O=C1c2c(O)cccc2C([C@@H]2O[C@H](CO)[C@@H](O)[C@H](O)[C@H]2O)c2cc(CO)cc(O)c21 (stereo not given in full) [Aloin] | -12.6
Cc1cc(/C=C/C#N)cc(C)c1Nc1ccnc(Nc2ccc(C#N)cc2)n1 [Rilpivirine] | -9.09
C=C1C(=O)[C@]23[C@H](O)[C@H]1CC[C@H]2[C@@]12CO[C@]3(O)[C@@H](O)[C@@H]1C(C)(C)CC[C@@H]2O [Oridonin] | -14.2
Cc1c(N(C)C)c(=O)n(-c2ccccc2)n1C [Amidopyrine] | 0.739
CCCc1c(-c2ccc(O)cc2)nn(-c2ccc(O)cc2)c1-c1ccc(O)cc1 [1,3,5-tris(4-hydroxyphenyl)-4-propyl-1H-pyrazole] | -0.0399
CCOc1cc2ncc(C#N)c(Nc3ccc(F)c(Cl)c3)c2cc1NC(=O)/C=C/CN(C)C [Pelitinib (EKB-569)] | -27.4
COc1ccc(/C=C/C(=O)Nc2ccccc2C(=O)O)cc1OC [Tranilast] | -0.221 ± 0.67
CCN(CC)CCNC(=O)c1c(C)[nH]c(/C=C2\C(=O)Nc3ccc(F)cc32)c1C [Sunitinib malate] | -11.2
CCN(CC)CCNC(=O)c1c(C)[nH]c(/C=C2\C(=O)Nc3ccc(F)cc32)c1C [Sunitinib Malate] | -26.5
Oc1ccc(/C=C/c2cc(O)cc(O)c2)cc1 [Resveratrol] | -2.54 ± 1
CCN(CC)Cc1ccc(C(=O)N(CCc2ccccc2OC)[C@@H]2CCNC2)cc1 | -5.47
CCOC(=O)C1=C(COCCN)NC(C)=C(C(=O)OC)C1c1ccccc1Cl (stereo not given) [Amlodipine] | -16.4
CN1[C@@H]2CC[C@H]1C[C@@H](OC(=O)c1c[nH]c3ccccc13)C2 [Tropisetron] | 0.67
COc1ccccc1N1CCN(CCCCN2C(=O)c3ccccc3C2=O)CC1 [NAN-190 hydrobromide] | -2.62

Compound | total cell number
Cc1cccc(C)c1OCC(C)N (stereo not given) [Mexiletine HCl] | -2.12
Cc1cccc(C)c1OCC(C)N (stereo not given) [Mexiletene hydrochloride] | -1.4
COc1ccccc1OCC(O)CO (stereo not given) [Guaifenesin] | 0.348
CC[C@]1(O)C[C@H]2CN(CCc3c([nH]c4ccccc34)[C@@](C(=O)OC)(c3cc4c(cc3OC)N(C=O)[C@H]3[C@@](O)(C(=O)OC)[C@H](OC(C)=O)[C@]5(CC)C=CCN6CC[C@]43[C@@H]65)C2)C1 [Vincristine sulfate] | -1.63
CC[C@]1(O)C[C@H]2CN(CCc3c([nH]c4ccccc34)[C@@](C(=O)OC)(c3cc4c(cc3OC)N(C=O)[C@H]3[C@@](O)(C(=O)OC)[C@H](OC(C)=O)[C@]5(CC)C=CCN6CC[C@]43[C@@H]65)C2)C1 [Vincristine] | -3.41
NC[C@@H]1O[C@H](O[C@H]2[C@@H](O)[C@H](O[C@@H]3[C@@H](O)[C@H](N)C[C@H](N)[C@H]3O[C@H]3O[C@H](CO)[C@@H](O)[C@H](O)[C@H]3N)O[C@@H]2CO)[C@H](N)[C@@H](O)[C@@H]1O [Paromomycin sulfate] | -0.353
Nc1nc(CC(=O)Nc2ccc(CCNC[C@H](O)c3ccccc3)cc2)cs1 [Mirabegron] | -2.27
CC(=O)[C@H]1CC[C@H]2[C@@H]3C=CC4=CC(=O)CC[C@@]4(C)[C@@H]3CC[C@]12C [Dydrogesterone] | -2.82
Cc1cc(=O)[nH]c(=S)[nH]1 [Methylthiouracil] | -0.387
COc1cccc(-c2cc(=O)c3ccccc3o2)c1N | -3.56 and -6.76
CC(=O)c1ccc2c(c1)N(CCCN(C)C)c1ccccc1S2 [Acepromazine maleate] | -4.57
CN(C)CCOC(C)(c1ccccc1)c1ccccn1 (stereo not given) [Doxylamine succinate] | -0.967
CN(C)CCOC(C)(c1ccccc1)c1ccccn1 (stereo not given) [Doxylamine Succinate] | 0.0683
C=CCNC(N)=S [Allylthiourea] | 6.27
CNC(=O)c1cccc(-c2ccc3c(N4CCOC[C@@H]4C)nc(N4CCOC[C@@H]4C)nc3n2)c1 | -8.56
COc1cc2nccc(Oc3ccc(NC(=O)Nc4cc(C)on4)c(Cl)c3)c2cc1OC [Tivozanib (AV-951)] | -23.5
CC(C)(C#N)c1cc(Cn2cncn2)cc(C(C)(C)C#N)c1 [Anastrozole] | -2.07
C[C@@H](O)[C@H]1C(=O)N2C(C(=O)O)=C(S[C@@H]3CN[C@H](CNS(N)(=O)=O)C3)[C@H](C)[C@H]12 [Doripenem Hydrate] | -2.66
O=C(Nc1ccccc1C(=O)NC1CCCCNC1=O)c1cc2ccccc2s1 (stereo not given) | -0.315
Nc1ccn([C@H]2CC[C@@H](CO)O2)c(=O)n1 [Zalcitabine] | 0.741
Nc1ccn([C@H]2CC[C@@H](CO)O2)c(=O)n1 [2',3'-dideoxycytidine] | -1.23
CCc1cc(Nc2nccc(-c3c(-c4ccc(OC)c(C(=O)Nc5c(F)cccc5F)c4)nc4ccccn34)n2)c(OC)cc1N1CCC(N2CCN(S(C)(=O)=O)CC2)CC1 | 1.44
CC(S)C(=O)NCC(=O)O (stereo not given) [Tiopronin] | -2.65
CN1CCN(CCCN2c3ccccc3Sc3ccc(C(F)(F)F)cc32)CC1 [Trifluoperazine 2HCl] | -12.1
CN1CCN(CCCN2c3ccccc3Sc3ccc(C(F)(F)F)cc32)CC1 [Trifluoperazine dihydrochloride] | -6.91
